Results as given in patent publication US20240352013A1, “BICYCLIC FUSED PYRAZOLE DERIVATIVES FOR THE TREATMENT OF RESPIRATORY INFECTIONS INCLUDING RSV” (GEORGIA STATE UNIVERSITY RESEARCH FOUNDATION, INC., priority 2021, published 2024).

Test system: recRSV-A2line19F-[FireSmash]
Experiment: Reporter-based dose-response antiviral assay, recRSV-fireSMASh in HEp-2 cells
Details: human respiratory syncytial virus
[1] = HEp-2, read-out: HEp-2 C50 (first)

| SMILES | EC50 (HEp-2, 48 h) | EC50 [1] | EC50 (HEp-2) |
| --- | --- | --- | --- |
| COc1c(F)c(F)c(Cn2c3cc(=O)n(Cc4cccc(C(F)(F)F)n4)c(C)c3c(=O)n2-c2ccccn2)c(F)c1F [AVG-435] | 85 nM | 200 nM | – |
| COc1ccc(Cn2c3cc(=O)n(Cc4cccc(C(F)(F)F)n4)c(C)c3c(=O)n2-c2ccccn2)cc1 [AVG-436] | 203 nM | 80 nM | – |
| Cc1c2c(=O)n(-c3ccccn3)n(Cc3c(Cl)cccc3Cl)c2cc(=O)n1Cc1cccc(C(F)(F)F)c1 [AVG-446] | 236 nM | – | – |
| Cc1c2c(=O)n(-c3ccccn3)n(Cc3c(Cl)cccc3Cl)c2cc(=O)n1Cc1cccc(C(F)(F)F)n1 [AVG-445] | 198 nM | 200 nM | – |
| COc1c(F)c(F)c(Cn2c3cc(=O)n(Cc4cccc(Cl)n4)c(C)c3c(=O)n2-c2ncc(F)cc2F)c(F)c1F [AVG-390] | 115 nM | 110 nM | – |
| COc1ccc(Cn2c3cc(=O)n(Cc4cccc(Cl)n4)c(C)c3c(=O)n2-c2ncc(F)cc2F)cc1 [AVG-391] | – | 960 nM | – |
| COc1c(F)c(F)c(Cn2c3cc(=O)n(Cc4cccc(Cl)n4)c(C)c3c(=O)n2-c2ccccn2)c(F)c1F [AVG-389] | – | 90 nM | – |
| COc1c(F)c(F)c(Cn2c3cc(=O)n(Cc4cccc(C(F)(F)F)n4)c(C)c3c(=O)n2-c2ncc(F)cc2F)c(F)c1F [AVG-388] | 53 nM | 50 nM | 90 nM |
| COc1ccc(Cn2c3cc(=O)n(Cc4cccc(C(F)(F)F)n4)c(C)c3c(=O)n2-c2ncc(F)cc2F)cc1 [AVG-392] | – | 810 nM | – |

Like-named read-outs stand apart in the source and are kept apart here.
